The campaign covered roughly 48,000 compounds. About 120 (0.25%) were called active. Not shown: some 4% with an inconclusive outcome. Calls come from the whole dose curve; as a rule, active = well fitted activation curve with a large enough effect; inconclusive = small, poorly fitted or top-dose-only effect, or another doubt; inactive = no such curve, though single readings can be large or run the other way. The list shows a part of the results.

The nature of this experiment: Primary qHTS for Identification of Small Molecule Activators of Huntingtin-Antisense Promoter Activity. Note: nearly all actives have a fitted effect of over 55% in size. The note with it: HEK293 HTT-AS promoter firefly luciferase reporter (activity 0% = vehicle and -100% = no light), 24 h; series mostly up to 57.5 µM; activity change, positive = activation: at the top concentration. Summed up: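 HEK293 Fluc reporter, 2,500 cells/well, 24 h pre-culture; cpds up to 57.5 uM final, 24 h 37 degrees C; Dual-Glo, 10 min RT; normalized vehicle = 0%, zero RLU = -100%.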
In the case of `O=C(Cn1c(=O)n(-c2ccc(F)c(Cl)c2)c(=O)c2sc3ccccc3c21)NC1CCCC1`, the “activity change, positive = activation” value is inactive: -0.559%.

As for `Cc1ccc(-n2c(=O)c3oc4ccccc4c3n(Cc3ccccc3F)c2=O)cc1C`, the “activity change, positive = activation” value was inactive: -18.1%.

For `COc1ccc(CNC(=O)c2cc3c(s2)-c2ccccc2OC3)cc1`, the “activity change, positive = activation” value is inactive: -15.5%.

As to `CCC(C)NC(=O)C(=O)Nc1c2c(nn1-c1ccccc1)CS(=O)(=O)C2` (configuration not stated), the “activity change, positive = activation” value is inactive: -15.1%.

In the case of `COc1ccc(NC(=O)CSc2nc3c(oc4ccccc43)c(=O)n2-c2ccc(C)c(C)c2)cc1`, the “activity change, positive = activation” value is inactive: -16.8%.

With `CCOC(=O)c1c(NC(C)=O)c2c3c(sc2n1Cc1nc(-c2ccccc2C)oc1C)CCCC3`, the “activity change, positive = activation” value was inactive: -4.74%.

As to `O=C(Nc1nc2ccc(F)cc2s1)c1nc(S(=O)(=O)Cc2ccccc2)ncc1Cl`, the “activity change, positive = activation” value is inactive: -46.1%.

On to `O=C(c1ccc2c(c1)N(Cc1ccc(Cl)cc1)C(=O)c1ccccc1S2(=O)=O)N1CCCCC1`, for which the “activity change, positive = activation” value was inactive: -30.2%.

Consider `CC1CN(C(=O)CCC(=O)NCc2ccc(F)cc2)c2cc(Cl)ccc2O1` (configuration not stated), for which the “activity change, positive = activation” value was inactive: 5.43%.

Consider `O=C(CN1C(=O)CCSc2ccccc21)Nc1ccccc1F`, for which the “activity change, positive = activation” value was inactive: -12.9%.

As for `CCOc1ccc(CCNC(=O)C2COc3ccccc3C2)cc1OCC` (configuration not stated), the “activity change, positive = activation” value is inactive: 9.68%.

As for `CC(CC(=O)Nc1ccc(Br)cc1F)S(=O)(=O)c1ccc2c(c1)NC(=O)CO2` (configuration not stated), the “activity change, positive = activation” value is inactive: -14.6%.

Regarding `CC(C)c1ccc(C2N=C(N)Nc3nc4ccccc4n32)cc1` (configuration not stated), the “activity change, positive = activation” value was inactive: -12.1%.

With `Cc1c(C)n(C)c2ccc(C(=O)N3CCN(c4ccccc4)CC3)cc12`, the “activity change, positive = activation” value is inactive: -12.3%.

Take `Cc1c(Cl)cccc1NC(=O)C(C)n1nnc2sc3c(c2c1=O)CCCC3` (configuration not stated): the “activity change, positive = activation” value was inactive: -0.74%.

Turning to `CSc1ncc(Cl)c(C(=O)N(Cc2ccc(N(C)C)cc2)Cc2ccco2)n1`, the “activity change, positive = activation” value is inactive: -41.6%.

Take `Cc1cc(C)cc(NC(=O)Cn2c(=O)c3ccccc3n3nncc23)c1`: the “activity change, positive = activation” value is inactive: -1.71%.

For the compound `CCOC(=O)c1ccccc1NC(=O)c1sc2nc3n(c(=O)c2c1C)CCCC3`, the “activity change, positive = activation” value was inactive: -3.28%.

For the compound `CCCCOc1ccc(CNC(=O)CCCN2C(=O)CSc3c2c(C)nn3-c2ccccc2)cc1`, the “activity change, positive = activation” value was inactive: -32%.

With `Cc1ccc2c(=O)cc(C(=O)Nc3ccc(S(=O)(=O)N4CCCCCC4)cc3)oc2c1C`, the “activity change, positive = activation” value is inactive: -7.46%.

For `CCc1ccc(CNC(=O)CN2C(=O)c3cccnc3Oc3ccc(C)cc32)cc1`, the “activity change, positive = activation” value was inactive: -13.9%.

As to `Cc1ccc(CNC(=O)Cn2cc(C(=O)c3ccc(F)cc3)c(=O)c3ccc(C)nc32)cc1`, the “activity change, positive = activation” value is inactive: -15.1%.

In the case of `CCOC(=O)C1CCN(C(=O)C2CCN(C3=NS(=O)(=O)C(c4ccc(C)c(C)c4)=C3C)CC2)CC1`, the “activity change, positive = activation” value is inactive: -19.4%.

As for `CCc1ccc(Cc2cnc(NC(=O)c3ccc4c(c3)CC(c3ccccc3)OC4=O)s2)cc1` (configuration not stated), the “activity change, positive = activation” value was inactive: -34.3%.

On to `Cc1cccc(C2CC(=O)Oc3c2c(=O)n(C)c2ccccc32)c1` (configuration not stated), for which the “activity change, positive = activation” value is inactive: -14.7%.

Consider `NC(=O)C1(N2CCCCC2)CCN(CCCC(=O)c2ccc(F)cc2)CC1`, for which the “activity change, positive = activation” value was inactive: -9.4%.

With `CCC(=O)Nc1ccc(-c2nnc3c4ccccc4c(C)nn23)cc1`, the “activity change, positive = activation” value is inactive: -7.21%.

In the case of `O=C(NCc1ccccc1)c1ccc2c(c1)CCN2S(=O)(=O)c1ccccc1`, the “activity change, positive = activation” value is inactive: -15.7%.

For the compound `Cc1ccc(NC(=O)CSc2nc(=O)n(CCCN(C)C)c3c2CCC3)cc1F`, the “activity change, positive = activation” value was inactive: -7.22%.

Turning to `CCCc1ccc(S(=O)(=O)N2CCC(Oc3ccc(-n4cnnn4)cc3)CC2)cc1`, the “activity change, positive = activation” value was inactive: -19%.

As for `CCOC(=O)c1[nH]c(C)c(CCC(=O)NCc2ccccc2Cl)c1C`, the “activity change, positive = activation” value is inactive: -15.5%.

As for `CNC(=O)c1ccc(Nc2nnc(-c3ccc(C)c(S(=O)(=O)N(C)C)c3)c3ccccc23)cc1`, the “activity change, positive = activation” value was inactive: -23.1%.

`CNC1(C)C2CCC(C2)C1(C)C` (configuration not stated): the “activity change, positive = activation” value was inactive: -13.3%.

Turning to `Cc1cc(C)cc(OCCCn2c(CCNC(=O)C3CCCCC3)nc3ccccc32)c1`, the “activity change, positive = activation” value is inactive: -20.4%.

For `CCCCC(CC)CNC(=O)C1CCC(CNS(=O)(=O)c2cccc3nsnc23)CC1` (configuration not stated), the “activity change, positive = activation” value was inactive: -21.2%.

As to `COc1ccc(CCNC(=O)CCCn2c(=O)c3ccccc3n(Cc3c(C)cc(C)cc3C)c2=O)cc1OC`, the “activity change, positive = activation” value is inactive: -14%.

Consider `CCC(=O)N1c2ccc(S(=O)(=O)N3CCC(C)CC3)cc2CC1C` (configuration not stated), for which the “activity change, positive = activation” value is inactive: -28.8%.

Consider `CC(C)(O)c1cc2nc(-c3cnc(N)nc3)nc(N3CCOCC3)c2s1`, for which the “activity change, positive = activation” value was inactive: -50.7%.

Turning to `O=C(CC1C(=O)OCCN1Cc1ccccc1)Nc1ccc(F)cc1` (configuration not stated), the “activity change, positive = activation” value is inactive: -18.1%.

With `Cc1ccc(C)c(NC(=O)Cn2cc(C(=O)c3ccc(Cl)cc3)c(=O)c3ccc(C)nc32)c1`, the “activity change, positive = activation” value is inactive: -16.6%.

Regarding `CC1CCN(S(=O)(=O)c2ccc(C(=O)Nc3sc4c(c3C(N)=O)CC(C)(C)NC4(C)C)cc2)CC1`, the “activity change, positive = activation” value is inactive: -15.8%.

For `Cc1cccc(C)c1-n1ncc(C(=O)N2CCN(c3ccccn3)CC2)c1C1CCN(C(=O)OC(C)(C)C)CC1`, the “activity change, positive = activation” value was inactive: -12.1%.

On to `N#Cc1ccc(CSc2nc3c(c(=O)[nH]2)CCC3)cc1`, for which the “activity change, positive = activation” value is inactive: -0.518%.

Regarding `COc1cc(NC(=O)CSc2nc(-c3ccc(C)cc3)nc3c2Cc2ccccc2O3)cc(OC)c1`, the “activity change, positive = activation” value was inactive: -22.9%.

Take `Cc1ccc(S(=O)(=O)c2nc(-c3cccc(C)c3)oc2N2CCN(c3ccccc3)CC2)cc1`: the “activity change, positive = activation” value is inactive: -24.7%.

Take `COc1ccc2c(c1)CCc1c(C(=O)Nc3c(C)nn(Cc4ccc(Cl)c(Cl)c4)c3C)noc1-2`: the “activity change, positive = activation” value was inactive: -67.3%.

With `CCCSc1ncc(Cl)c(C(=O)Nc2nc3ccc(OCC)cc3s2)n1`, the “activity change, positive = activation” value is inactive: -3.03%.

Source of the values: PubChem BioAssay AID1508624 (National Center for Advancing Translational Sciences (NCATS), 2021).
